# Test results as given in PubChem BioAssay AID485344 (National Center for Advancing Translational Sciences (NCATS), 2010).
# Hit rate of the full screen: of about 340,000 compounds, about 6,900 (2%) were called active. Rule as the data show it: active = inhibition above about 30%; inactive = below that, where a call was filed. The entries are a selection whose mix differs from that of the whole data set. Where no call is shown, the source filed none.
# Biological target: D(2) dopamine receptor (Homo sapiens) (UniProt P14416)
# Assay: HTS Assay for Allosteric Antagonists of the Human D2 Dopamine Receptor: Primary Screen for Antagonists; also: 0% is about no effect
# Conditions: HEK293 TREx D2 cells, calcium flux, dopamine EC80; at 10 µM; stronger effect = higher value
# Method in brief: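 Compounds are added to dye-loaded, induced HEK293 T-REx cells coupled to calcium release via D2; after a 3 min kinetic read an EC80 dopamine stimulus is given and fluorescence is recorded for 3 more min.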
# Sequence of UniProt P14416 (P14416 whole entry, looked up): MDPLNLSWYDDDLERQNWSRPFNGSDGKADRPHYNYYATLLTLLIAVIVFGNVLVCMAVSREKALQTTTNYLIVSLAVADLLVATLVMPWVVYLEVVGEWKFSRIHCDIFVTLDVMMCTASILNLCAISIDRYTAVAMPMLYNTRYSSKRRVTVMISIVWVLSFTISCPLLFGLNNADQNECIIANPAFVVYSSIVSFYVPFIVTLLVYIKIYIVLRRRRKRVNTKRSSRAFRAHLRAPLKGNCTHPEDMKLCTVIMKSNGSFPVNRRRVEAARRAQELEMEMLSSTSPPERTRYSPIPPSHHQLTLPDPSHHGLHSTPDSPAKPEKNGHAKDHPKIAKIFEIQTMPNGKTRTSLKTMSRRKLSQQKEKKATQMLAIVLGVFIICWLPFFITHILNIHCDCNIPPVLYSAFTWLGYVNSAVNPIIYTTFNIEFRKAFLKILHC
row,Structure (SMILES),inhibition
1,O=C(CSC1=Nc2ccccc2C2=NC(Cc3ccccc3)C(=O)N12)Nc1ccccc1F (stereo not given),0.878%
2,CCOC(=O)NC1(C(F)(F)F)NC(=O)N(c2ccc(C)c(C)c2)C1=O (stereo not given),24.8%
3,COc1cccc(C(=O)Nc2cccc(C(=O)OCc3cc(=O)n4nc(C(C)C)sc4n3)c2)c1,-7.96%
4,CCCc1ccc(OCC(O)CN2CCN(c3ccccn3)CC2)cc1 (stereo not given),active: 74.2%
5,CNCc1c(OCc2ccccc2F)ccc2ccccc12,active: 77.8%
6,CC(=O)N1CCC(N(C(=O)Nc2c(F)cccc2F)C(C)C)CC1,3.88%
7,O=C(NCc1cccc(Cl)c1)C1CCN(C(=O)c2sccc2-n2cccc2)CC1,11.7%
8,CCc1ccc(C(=O)c2cn(CC(=O)Nc3ccc(OC)cc3OC)c3ccc(CC)cc3c2=O)cc1,-15.9%
9,COc1ccc(C(=O)N(Cc2cc(OC)c(OC)c(OC)c2)CC2CCCO2)cc1 (stereo not given),8.19%
10,O=C(NCC(c1cccnc1)N1CCc2ccccc21)c1cccc(C(F)(F)F)c1 (stereo not given),5.34%
11,O=C(CSc1nccn1Cc1ccc(F)cc1)Nc1ccc2c(c1)OCCO2,-0.0629%
12,Cc1ccc(-c2noc(-c3nnn(CC(=O)Nc4cc(C)cc(C)c4)c3N)n2)cc1,-2.7%
13,CCCNC(=O)CSc1nc2nc(C)c(Cc3ccccc3Cl)c(C)n2n1,7.41%
14,CCN(CC)S(=O)(=O)c1cc(-c2onc(C)c2C)ccc1OC,3.12%
15,COc1ccc(CCCc2nnc(SCC(=O)Nc3ccc(C)cc3C)o2)cc1,-20.6%
16,CCc1ccc(CNC(=O)CSc2cc(=O)n(C)c3ccc(Cl)cc23)cc1,3.73%
17,COc1ccc(OC)c(CNC(=O)Cc2ccc(NC(=O)N3CCCCc4ccccc43)cc2)c1,5.54%
18,COCCCNC(=O)c1c(NC(=O)Cc2coc3cc(C)cc(C)c23)sc2c1CCCC2,-0.521%
19,CCN(CCCNC(=O)c1cc2c(=O)n(CC)c3ccccc3c2s1)c1ccccc1,16%
20,CC1CCCC(C)N1C(=O)CSc1nnc(C2CCCCC2)o1 (stereo not given),active: 90.3%
21,CC(NC(=O)CCSCc1ccccc1F)c1ccccc1 (stereo not given),22.6%
22,COc1ccc(-c2cc(-c3ccccc3)nc(SCC(=O)CC(=O)OC(C)C)c2C#N)cc1,0.402%
23,O=C(c1ccc2c(c1)N(Cc1ccccc1F)C(=O)c1ccccc1S2(=O)=O)N1CCCC1,-15.1%
24,CC1=C(c2ccc(C)c(C)c2)S(=O)(=O)N=C1N1CCC(C(=O)NCc2ccc(C)o2)CC1,-5.5%

row,Structure (SMILES),inhibition
1,Cc1ccccc1OCCn1c(CCNC(=O)C(C)(C)C)nc2ccccc21,-1.06%
2,CC(C)(C)OC(=O)N1CCC(c2c(C(=O)N3CCc4ccccc4C3)cnn2-c2ccc(F)cc2)CC1,-6.35%
3,CCOc1ccc(-c2nc(C#N)c(NCCCOC)o2)cc1,-9.05%
4,CC(NC(=O)CCCn1c(=O)c2cccn2c2cccnc21)c1ccccc1 (stereo not given),1.98%
5,Cc1coc2c(C)c3oc(=O)c(CCC(=O)NCCc4ccc(Cl)cc4)c(C)c3cc12,8.08%
6,CCc1ccc(CNC(=O)c2ccc(-c3nc(CS(=O)(=O)c4ccccc4)c(C)o3)cc2)cc1,-4.07%
7,COc1ccc(N2CCN(C(=O)c3nc(SC)ncc3Cl)CC2)cc1,-6.85%
8,O=C(Cn1nc(-c2ccc(Cl)cc2)ccc1=O)NCc1ccccc1Cl,6.49%
9,CCOc1ccc(OCC)c(NC(=O)CN(C)S(=O)(=O)c2ccc3c(c2)CCCC(=O)N3)c1,2.09%
10,COc1cccc(C2C(C(=O)Nc3ccc(C)cc3C)=C(C)Nc3c(C(=O)Nc4cccc(C)c4)cnn32)c1OC (stereo not given),-2.45%
11,COc1cccc(N2CCN(C3C(=O)c4ccccc4N3C(C)=O)CC2)c1 (stereo not given),6.66%
12,CCc1c(C)nc2nc(SCc3ccccc3Cl)[nH]n2c1=O,active: 31.9%
13,COc1ccc(N2CCN(C(=O)c3ccc(-c4nc(COc5ccccc5)c(C)o4)cc3)CC2)cc1,0.539%
14,CCCNC(=O)C1CCC(Cn2c(=O)c3sccc3n(CC(=O)N3CCC(C)CC3)c2=O)CC1 (stereo not given),18%
15,Cc1cccc(OCC(=O)N(Cc2sccc2C)C2CCS(=O)(=O)C2)c1 (stereo not given),-2.73%
16,CCOC(=O)N1CCc2c(sc3c2c(=O)n(-c2ccc(CC)cc2)c(=O)n3CC(=O)c2ccc(F)cc2)C1,-12.7%
17,Cc1c2cnn(CC(=O)Nc3cccc(C(F)(F)F)c3)c(=O)c2c(C)n1Cc1ccccc1Cl,4.37%
18,COc1ccccc1/C=C/c1nc(C#N)c(N(C)C)o1,-8.59%
19,COc1cc(C(=O)Nc2ccc3nc(SCc4ccccc4)sc3c2)cc(OC)c1OC,-3.73%
20,CCN(C(=O)CSc1nc2ccccc2n1Cc1cc(C)ccc1C)c1ccccc1,3.88%
21,CCC(Sc1nncn2c1cc1occc12)C(=O)Nc1ccc(C)c(Cl)c1 (stereo not given),-3.7%
22,Cc1ccc(C(=O)NCC(c2cccs2)S(=O)(=O)c2cccs2)cc1 (stereo not given),-2.65%
23,COc1ccc(S(N)(=O)=O)cc1-c1nnc2c3ccccc3c(C)nn12,active: 30.1%
24,CCOC(=O)c1cccc(NC(=O)CC2C(=O)N(c3ccc(F)cc3)C(=O)N2C(C)C)c1 (stereo not given),5.97%

row,Structure (SMILES),inhibition
1,COCCCNC(=O)CC(c1cc(OC)c(OC)c(OC)c1)N1Cc2ccccc2C1=O (stereo not given),11%
2,Cc1ccc(-c2nc3ncccc3o2)cc1NC(=O)COc1ccc(C(C)C)cc1,2.01%
3,COc1ccc(NC(=O)C(Cc2ccccc2)NS(=O)(=O)c2ccc(Br)s2)cc1OC (stereo not given),6.73%
4,Cc1ccc([N+](=O)[O-])cc1N/C=C1\CCCCC1=O,active: 51.8%
5,Cc1noc(/C=C/c2ccco2)c1S(=O)(=O)N1CCC(C(=O)Nc2ccc(F)cc2F)CC1,-2.67%
6,Cc1ccc(OCC(=O)Nc2ccc3nc(SCc4ccccc4)sc3c2)cc1,1.37%
7,CCCCN(Cc1ccccc1)C(=O)CN(C)S(=O)(=O)c1ccc2c(c1)c(=O)n(C)c(=O)n2C,-22.1%
8,O=C(Nc1cc(C(F)(F)F)ccc1Cl)c1cc(S(=O)(=O)NCc2ccccc2)ccc1F,-21.8%
9,CC1CN(C(=O)CCC(=O)NCc2cccnc2)c2ccccc2O1 (stereo not given),active: 35.5%
10,CCOC(=O)c1cccc(NC(=O)Cn2c(=O)nc(-c3ccccc3)c3ccccc32)c1,6.26%
11,CCc1cc2c(cc3c(=O)n(CCCC(=O)NCc4ccccc4Cl)nc(CC)n32)s1,8.07%
12,Cc1cccc(OCc2ccc(-c3nc(C#N)c(N4CCC(C(N)=O)CC4)o3)o2)c1,-21.4%
13,COc1ccccc1CCNC(=O)CCn1c(=O)c2cccn2c2ccc(F)cc21,9.7%
14,CCOc1cc(C(=O)Nc2ccc3oc(-c4ccc(CC)cc4)nc3c2)cc(OCC)c1OCC,-5.93%
15,COc1ccc(CCNC(=O)CCc2c(C)nc3cc(-c4ccccc4)nn3c2C)cc1OC,5.41%
16,Cc1cc(C)cc(NC(=O)CSCn2nnc3c(=O)[nH]c(Cc4ccc(F)cc4)nc32)c1,-9.22%
17,CCN1C(=O)C(CC(=O)Nc2ccc(Cl)cc2)N(NC(=O)c2ccncc2)C1=S (stereo not given),active: 31.1%
18,COc1ccc(OC)c(CCNC(=O)c2cc3c(-c4ccccc4F)nn(C)c3s2)c1,-15.3%
19,COc1ccc(C)cc1NS(=O)(=O)c1ccc2c(c1)[C@H]1C=CC[C@H]1[C@@H](c1cccc(Cl)c1)N2,-27.6%
20,COc1cc(OC)cc(C(=O)NCC(=O)N2CCCCCCC2)c1,active: 33.6%
21,CCc1cc(C(=O)Nc2cnn(Cc3ccc(F)cc3)c2)no1,-8.29%
22,Cc1cccc(NC(=O)Cn2cc(S(=O)(=O)c3ccc(F)cc3)c(=O)c3cc4c(cc32)OCO4)c1,5.75%
23,Cc1ccc(-c2c(C(=O)N3CCN(c4cccc(C)c4C)CC3)oc(=O)c3ccccc23)cc1,-5.39%
24,CC(=O)c1cccc(S(=O)(=O)N2CCC(C(=O)OC3CCOC3=O)CC2)c1 (stereo not given),active: 43.4%

row,Structure (SMILES),inhibition
1,CC(=O)c1cccc(NC(=O)c2cnn(-c3cccc(C)c3)c2-n2cccc2)c1,-4.84%
2,O=C(Cn1c(-c2cccs2)cc2cc(Cl)ccc21)NCc1ccccc1,-0.931%
3,CCCSc1nc(=O)c2c(n1C)NC(=O)CC2c1cccc(F)c1F (stereo not given),-8.07%
4,Cc1cc(SCC(=O)N(C)c2c(N)n(Cc3ccccc3)c(=O)[nH]c2=O)nc2ccccc12,active: 38.2%
5,CCc1ccccc1NC(=O)CN(Cc1ccccc1)S(=O)(=O)c1ccc2nc(C)sc2c1,0.714%
6,COc1ccc(-n2nc3ccc(NC(=O)COc4ccc(C)c(C)c4)cc3n2)cc1,-4.6%
7,CCOC(=O)c1c(NC(=O)CCCOc2ccc(C(C)(C)C)cc2)sc2c1CCC2,9.01%
8,COc1ccc(N2CCN(C(=O)Cc3c(C(=O)O)c(C)cn3C)CC2)cc1,0.456%
9,CCCN(CCC)CCNC(=O)C1CCN(S(=O)(=O)c2cccc3nsnc23)CC1,active: 37.5%
10,COc1ccc(Nc2ccc3cc(S(=O)(=O)N4CCCC4)ccc3n2)cc1Cl,-4.66%
11,Cc1ccc2oc(=O)c3cnn(CC(=O)N(C)c4ccc(F)cc4)c3c2c1,-13.2%
12,CC(=O)c1ccc(NC(=O)C2CCN(S(=O)(=O)c3ccc4c(c3)CCCN4C(=O)C3CCC3)CC2)cc1,-9.76%
13,CCOc1ccc(-n2c(SCC(=O)Nc3ccccc3OC)nc3c(oc4ccccc43)c2=O)cc1,11.7%
14,COc1ccccc1OCC(=O)N(Cc1ccc(N(C)C)cc1)CC1CCCO1 (stereo not given),-0.163%
15,Cc1cc(C)c(NC(=O)CSc2nc(C)cc(C)c2C#N)c(C)c1,0.365%
16,COc1ccc(N2CCN(S(=O)(=O)c3c(C)nc4scc(C)n4c3=O)CC2)cc1,-8.84%
17,O=C(CN1Cc2ccccc2C1=O)Nc1cc(F)ccc1F,1.27%
18,Cc1cccc(N(C)C(=O)C(Cc2ccccc2)NS(=O)(=O)c2cccc3nsnc23)c1 (stereo not given),23.3%
19,Cc1ccc(NC(=O)C2CCCN(S(=O)(=O)c3cccc4cccnc34)C2)cc1Cl (stereo not given),26.3%
20,Cc1ccc(C(=O)Nc2cccc(C(=O)OCc3cc(=O)n4c5c(sc4n3)CCCC5)c2)cc1,3.4%
21,COc1cc(OC)c(NC(=O)c2ccc3nc(C(C)C)oc3c2)cc1Cl,-4.9%
22,Cc1ccc2[nH]cc(C(c3ccccc3)c3cccs3)c2c1 (stereo not given),-24.9%
23,COc1ccccc1CNC(=O)c1cn(C)c2ccc(S(=O)(=O)N3CCC(C)CC3)cc2c1=O,-0.793%
